Data reported in patent US10501552B2, “Multivalent molecules comprising DR5-binding domains” (MacroGenics, Inc., priority 2015, dated 2019).

B1: DR5 mAb 1 × DR5 mAb 2 Fc diabody: bispecific tetravalent E-coil/K-coil Fc diabody, wild-type IgG1 Fc; chains SEQ ID NO:116 and 118 (protein)
chain 1: DIVLTQSPASLAVSLGQRATISCRASKSVSSSGYSYMHWYQQKPGQPPKVLIFLSSNLDSGVPARFSGSGSGTDFTLNIHPVEDGDAATYYCQHSRDLPPTFGGGTKLEIKGGGSGGGGKVQLQQSGAELVKPGASVKLSCKASGYTFTEYILHWVKQKSGQGLEWIGWFYPGNNNIKYNEKFKDKATLTADKSSSTVYMELSRLTSEDSAVYFCARHEQGPGYFDYWGQGTTLTVSSASTKGEVAACEKEVAALEKEVAALEKEVAALEKL[sequence of human IgG1 Fc with C220S (EU numbers) omitted]
chain 2: DIVMTQSHKFMSTSVGDRVSITCKASQDVNTAVAWYQQKPGQSPKLLIYWASTRHTGVPDRFTGSGSGTDYTLTIKSVQAEDLTLYYCQQHYITPWTFGGGTKLEIKGGGSGGGGEVKFLESGGGLVQPGGSLKLSCVASGFDFSRYWMSWVRQAPGKGLEWIGEINPDSNTINYTPSLKDKFIISRDNAKNTLYLQMTKVRSEDTALYYCTRRAYYGNPAWFAYWGQGTLVTVSAASTKGKVAACKEKVAALKEKVAALKEKVAALKE
modifications: First Polypeptide Chain of an Exemplary DR5 mAb 1 x DR5 mAb 2 Fc diabody; Second Polypeptide Chain of an Exemplary DR5 mAb 1 x DR5 mAb 2 Fc diabody
B2: DR5 mAb 2 × DR5 mAb 1 Fc diabody: bispecific tetravalent E-coil/K-coil Fc diabody, wild-type IgG1 Fc; chains SEQ ID NO:122 and 124 (protein)
chain 1: DIVMTQSHKFMSTSVGDRVSITCKASQDVNTAVAWYQQKPGQSPKLLIYWASTRHTGVPDRFTGSGSGTDYTLTIKSVQAEDLTLYYCQQHYITPWTFGGGTKLEIKGGGSGGGGEVKFLESGGGLVQPGGSLKLSCVASGFDFSRYWMSWVRQAPGKGLEWIGEINPDSNTINYTPSLKDKFIISRDNAKNTLYLQMTKVRSEDTALYYCTRRAYYGNPAWFAYWGQGTLVTVSAASTKGEVAACEKEVAALEKEVAALEKEVAALEKL[sequence of human IgG1 Fc with C220S (EU numbers) omitted]
chain 2: DIVLTQSPASLAVSLGQRATISCRASKSVSSSGYSYMHWYQQKPGQPPKVLIFLSSNLDSGVPARFSGSGSGTDFTLNIHPVEDGDAATYYCQHSRDLPPTFGGGTKLEIKGGGSGGGGKVQLQQSGAELVKPGASVKLSCKASGYTFTEYILHWVKQKSGQGLEWIGWFYPGNNNIKYNEKFKDKATLTADKSSSTVYMELSRLTSEDSAVYFCARHEQGPGYFDYWGQGTTLTVSSASTKGKVAACKEKVAALKEKVAALKEKVAALKE
modifications: First Polypeptide Chain of an Exemplary DR5 mAb 2 x DR5 mAb 1 Fc diabody; Second Polypeptide Chain of an Exemplary DR5 mAb 2 x DR5 mAb 1 Fc diabody

How the values were obtained:
Type in all cases: cell-based
22RV1 = assay: MTS cell proliferation assay; settings: 22RV1 (Prostate); no cross-linking antibody
Procedure: (§1) Cell lines obtained from ATCC were cultured under standard tissue culture conditions. Each cell line was plated at ˜2×10^4 cells/well (in 96-well plates), and incubated overnight in F12/DMEM media supplemented with 10% FBS. […] Cell viability was determined using Promega CellTiter 96® AQeous Non-Radioactive Cell Proliferation Assay (Cat # G5430) essentially as described in the manufacturer's instructions to assay the amount of soluble formazan produced by cellular reduction of the MTS, which is a measure of the number of viable cells in the culture. Briefly, MTS/PMS regent was added to the wells and the absorbance at 490 nm (referenced at […]) was read in a Molecular Devices ThermoMax microplate reader.
(§2) Similar studies were performed over a range of anti-DR5 mAb concentrations from ˜10^−3 nM to ˜10^2 nM. The data for COLO205 cells is provided in FIG. 13, and are representative of cell lines sensitive to the antibodies of the invention.
(§3) The cytotoxicity of tetravalent DR5-Binding Molecules of the present invention was investigated. […] His-tagged TRAIL (R&D systems) was used as a positive control.
(§4) Similar studies were performed over a range of anti-DR5 mAb concentrations from ˜10^−3 nM to ˜10^2 nM.

786O = assay: MTS cell proliferation assay; settings: 786O (Kidney); no cross-linking antibody
Procedure: as §1, §2, §3, §4

A498 = assay: MTS cell proliferation assay; settings: A498 (Kidney); no cross-linking antibody
Procedure: as §1, §2, §3, §4

AsPC1 = assay: MTS cell proliferation assay; settings: AsPC1 (Pancreas); no cross-linking antibody
Procedure: as §1, §2, §3, §4

BT474 = assay: MTS cell proliferation assay; settings: BT474 (Breast); no cross-linking antibody
Procedure: as §1, §2, §3, §4

CaKi2 = assay: MTS cell proliferation assay; settings: CaKi2 (Kidney); no cross-linking antibody
Procedure: as §1, §2, §3, §4

Calu3 = assay: MTS cell proliferation assay; settings: Calu3 (Lung); no cross-linking antibody
Procedure: as §1, §2, §3, §4

ES2 = assay: MTS cell proliferation assay; settings: ES2 (Ovary); no cross-linking antibody
Procedure: as §1, §2, §3, §4

HPAFII = assay: MTS cell proliferation assay; settings: HPAFII (Pancreas); no cross-linking antibody
Procedure: as §1, §2, §3, §4

HT29 = assay: MTS cell proliferation assay; settings: HT29 (Colon); no cross-linking antibody
Procedure: as §1, §2, §3, §4

Hs700T [1] = assay: MTS cell proliferation assay; settings: Hs700T (Pancreas); no cross-linking antibody
Procedure: as §1, §2, §3, §4

Hs746T [2] = assay: MTS cell proliferation assay; settings: Hs746T (Stomach); no cross-linking antibody
Procedure: as §1, §2, §3, §4

MCF7 = assay: MTS cell proliferation assay; settings: MCF7 (Breast); no cross-linking antibody
Procedure: as §1, §2, §3, §4

MDA-MB-175VII [3] = assay: MTS cell proliferation assay; settings: MDA-MB-175VII (Breast); no cross-linking antibody
Procedure: as §1, §2, §3, §4

MDA-MB-231 = assay: MTS cell proliferation assay; settings: MDA-MB-231 (Breast); no cross-linking antibody
Procedure: as §1, §2, §3, §4

MDA-MB-361 = assay: MTS cell proliferation assay; settings: MDA-MB-361 (Breast); no cross-linking antibody
Procedure: as §1, §2, §3, §4

NCI-N87 [4] = assay: MTS cell proliferation assay; settings: NCI-N87 (Stomach); no cross-linking antibody
Procedure: as §1, §2, §3, §4

PC3 = assay: MTS cell proliferation assay; settings: PC3 (Prostate); no cross-linking antibody
Procedure: as §1, §2, §3, §4

SKOV3 = assay: MTS cell proliferation assay; settings: SKOV3 (Ovary); no cross-linking antibody
Procedure: as §1, §2, §3, §4

SW48 = assay: MTS cell proliferation assay; settings: SW48 (Colon); no cross-linking antibody
Procedure: as §1, §2, §3, §4

SW948 = assay: MTS cell proliferation assay; settings: SW948 (Colon); no cross-linking antibody
Procedure: as §1, §2, §3, §4

COLO205 = assay: […]-GLO cell viability assay with vorinostat; settings: for Average % Ctrl: one day
Procedure: For the first study COLO205 cells were plated at 2×10^4 cells/well (in 96-well plates), and incubated overnight in F12/DMEM media supplemented with 10% FBS. […] Cell viability was determined using Promega […]-GLO® Luminescent Cell Viability Assay (Cat # G5430) essentially as described in the manufacturer's instructions to assay the amount of ATP present, which is a measure of the number of viable cells in the culture. Briefly, an […]-GLO® Reagent was added to the wells and mixed for two minutes to induce lysis and the luminescence was read in a in PerkinElmer EnVision multilabel plate reader.
Cell viability of cells treated with the test articles is normalized to the corresponding negative control (medium±vorinostat) which is set to 100% and reported in Table 12 as % of control for each test agent alone or % control for each test agent in combination with vorinostat. % of control values less than 100% indicate a reduction in viability and reflect the cytotoxicity of the test article alone or in combination with vorinostat.
The Net Gain (Average % Growth Inhibition)=% Medium Ctrl (10% FBS)−% Medium Ctrl (1/10 μM vorinostat), and represents increased cytotoxicity of the test article in combination with vorinostat over cells treated with vorinostat alone.

Hs746T [5] = assay: […]-GLO cell viability assay with vorinostat; settings: Hs746T (Stomach); 1 μg/ml + 10 μM Vorinostat
MDA-MB-175VII [6] = assay: […]-GLO cell viability assay with vorinostat; settings: MDA-MB-175VII (Breast); 1 μg/ml + 1 μM Vorinostat
NCI-N87 [7] = assay: […]-GLO cell viability assay with vorinostat; settings: NCI-N87 (Stomach); 1 μg/ml + 1 μM Vorinostat
Hs700T [8] = assay: […]-GLO cell viability assay with vorinostat; settings: Hs700T (Pancreas); 1 μg/ml + 1 μM Vorinostat
[9] = Vorinostat 0 μM, % Medium Ctrl (10% FBS), 10 ng/ml tetravalent molecule or 1 μg/ml DR5 mAb
[10] = Vorinostat 0.1 μM, normalized to medium + vorinostat
[11] = Vorinostat 1 μM, normalized to medium + vorinostat

Row | Molecule | % Inhibition (Average) (22RV1) [%] | % Inhibition (Average) (786O) [%] | % Inhibition (Average) (A498) [%] | % Inhibition (Average) (AsPC1) [%] | % Inhibition (Average) (BT474) [%] | % Inhibition (Average) (CaKi2) [%] | % Inhibition (Average) (Calu3) [%] | % Inhibition (Average) (ES2) [%] | % Inhibition (Average) (HPAFII) [%] | % Inhibition (Average) (HT29) [%] | % Inhibition (Average) (Hs700T [1]) [%] | % Inhibition (Average) (Hs746T [2]) [%] | % Inhibition (Average) (MCF7) [%] | % Inhibition (Average) (MDA-MB-175VII [3]) [%] | % Inhibition (Average) (MDA-MB-231) [%] | % Inhibition (Average) (MDA-MB-361) [%] | % Inhibition (Average) (NCI-N87 [4]) [%] | % Inhibition (Average) (PC3) [%] | % Inhibition (Average) (SKOV3) [%] | % Inhibition (Average) (SW48) [%] | also measured
1 | B1 | 1.83 | 5.62 | 81.47 | 15.01 | 3.96 | 36.9 | 15.18 | 8.44 | 10.05 | 16.2 | 17.89 | 5.94 | 6.03 | 3.36 | 15.24 | 5.35 | 10.62 | 10.54 | 13.02 | 39.81 | % Inhibition (Average) (SW948): 78.33%; Average % Ctrl (COLO205; [9]): 64.4%; Net Gain (Average % Growth Inhibition) (COLO205; Vorinostat 0.1 μM): 12%; Average % Ctrl (COLO205; [10]): 52.6%; Net Gain (Average % Growth Inhibition) (COLO205; Vorinostat 1 μM): 20%; Average % Ctrl (COLO205; [11]): 44.8%; Net Gain (Average % Growth Inhibition) (Hs746T [5]): 38.78%; Net Gain (Average % Growth Inhibition) (MDA-MB-175VII [6]): 10.84%; Net Gain (Average % Growth Inhibition) (NCI-N87 [7]): 31.47%; Net Gain (Average % Growth Inhibition) (Hs700T [8]): 46.91%
2 | B2 | 2.95 | 5.13 | 74.27 | 12.7 | 2.62 | 31.66 | 18.01 | 12.25 | 10.1 | 11.02 | 13.38 | 5.09 | 6.27 | 2.96 | 14.03 | 3.61 | 5.01 | 10.79 | 9.95 | 33.53 | % Inhibition (Average) (SW948): 77.91%; Average % Ctrl (COLO205; [9]): 84.1%; Net Gain (Average % Growth Inhibition) (COLO205; Vorinostat 0.1 μM): 13%; Average % Ctrl (COLO205; [10]): 70.7%; Net Gain (Average % Growth Inhibition) (COLO205; Vorinostat 1 μM): 35%; Average % Ctrl (COLO205; [11]): 48.9%; Net Gain (Average % Growth Inhibition) (Hs746T [5]): 25.69%; Net Gain (Average % Growth Inhibition) (MDA-MB-175VII [6]): 10.63%; Net Gain (Average % Growth Inhibition) (NCI-N87 [7]): 25.28%; Net Gain (Average % Growth Inhibition) (Hs700T [8]): 43.04%
